Measured values published in a collection of fitness landscapes (doi:10.1016/j.celrep.2020.107928).
Whole data set: some 81,000 sequences, median “one-hybrid fitness for binding NBS DNA” near -0.1, cut for the highest 2% near 0.36. The list shows a part of the results.

B1: Caulobacter ParB omega fusion; a variant is named by its letters at X, in order, B8GW30 (parent)
chain: MESVVVGEPGMSEGRRGLGRGLSALLGEVDAAPAQAPGEQLGGSREAPIEILQRNPDQPRRTFREEDLEDLSNSIREKGVLQPILVRPSPDTAGEYQIVAGERAWRAAQRAGLKTVPIMVRELDDLAVLEIGIIENVQRADLNVLEEALSYKVLMEKFERTQENIAQTIGKSXSHVANXMRLLXLPDEVQSYLVSGELTAXHARAIAAAADPVALAKQIIEGGLSVRETEALARKAPNLSAGKSKGGRPPRVKDTDTQALESDLSSVLGLDVSIDHRGSTGTLTITYATLEQLDDLCNRLTRGI

Variants of: B1
Experiment: one-hybrid fitness for binding NBS DNA (the Noc-binding site; scaled: cognate 1, non-cognate 0); higher = stronger binding
Conditions: with NBS DNA site
How it was run: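 Values were rescaled so that cognate is 1 and non-cognate is 0. Each is a fitness, the log change in a variant's read ratio to wild type from Illumina reads of plasmids before and after selection, with three replicate libraries pooled and variants under 10 reads dropped. Selection of the Caulobacter ParB libraries, four specificity codons randomised, used E. coli USO with a HIS3 reporter, site 19 bp from the promoter, on M9-minus-histidine with 0.1 mM IPTG and 5 mM 3-AT for 48 hours at 37°C.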

| Variant | one-hybrid fitness for binding NBS DNA |
| --- | --- |
| LIDT | ≤ 0.2 |
| ITRP | ≤ 0.2 |
| KAAS | ≤ 0.2 |
| LFFT | ≤ 0.2 |
| RTDD | ≤ 0.2 |
| QQVI | ≤ 0.2 |
| QKTM | ≤ 0.2 |
| EWFG | ≤ 0.2 |
| LQPR | ≤ 0.2 |
| MSAL | ≤ 0.2 |
| PVWA | ≤ 0.2 |
| RLSI | ≤ 0.2 |
| HYAC | ≤ 0.2 |
| QKQP | ≤ 0.2 |
| EGPT | ≤ 0.2 |
| RFNE | ≤ 0.2 |
| RSMN | ≤ 0.2 |
| SDQR | ≤ 0.2 |
| HNSF | ≤ 0.2 |
| MRWR | ≤ 0.2 |
| LSLY | ≤ 0.2 |
| PTII | ≤ 0.2 |
| VWEG | ≤ 0.2 |
| SGAG | ≤ 0.2 |
| PDGR | ≤ 0.2 |
| DMSM | ≤ 0.2 |

| Variant | one-hybrid fitness for binding NBS DNA |
| --- | --- |
| PFQM | ≤ 0.2 |
| PHTS | ≤ 0.2 |
| QTFA | 0.301 |
| DRYR | ≤ 0.2 |
| QVLI | ≤ 0.2 |
| QVVG | ≤ 0.2 |
| SPAM | ≤ 0.2 |
| RACT | 0.334 |
| YRET | ≤ 0.2 |
| AKFC | ≤ 0.2 |
| VRTT | ≤ 0.2 |
| NPFY | ≤ 0.2 |
| CDNR | ≤ 0.2 |
| PWVG | ≤ 0.2 |
| EPSS | ≤ 0.2 |
| WESG | ≤ 0.2 |
| WHLD | ≤ 0.2 |
| MLPF | ≤ 0.2 |
| TQTF | ≤ 0.2 |
| QTTS | 0.528 |
| MSMS | ≤ 0.2 |
| QLSM | ≤ 0.2 |
| AQRI | ≤ 0.2 |
| HDCT | ≤ 0.2 |
| RVIK | ≤ 0.2 |
| GGEC | ≤ 0.2 |

| Variant | one-hybrid fitness for binding NBS DNA |
| --- | --- |
| EFNG | ≤ 0.2 |
| SAHR | ≤ 0.2 |
| FMSQ | ≤ 0.2 |
| CHPS | ≤ 0.2 |
| LVWN | ≤ 0.2 |
| HPQW | ≤ 0.2 |
| FWVS | ≤ 0.2 |
| IFEI | ≤ 0.2 |
| GMSG | ≤ 0.2 |
| HDPY | ≤ 0.2 |
| SFQT | 0.203 |
| IRCI | ≤ 0.2 |
| HIPM | ≤ 0.2 |
| TKFS | ≤ 0.2 |
| HPVR | ≤ 0.2 |
| MHLW | ≤ 0.2 |
| NAPL | ≤ 0.2 |
| NRWY | ≤ 0.2 |
| PIPA | ≤ 0.2 |
| IATT | ≤ 0.2 |
| RKGD | ≤ 0.2 |
| ELSW | ≤ 0.2 |
| RYST | 0.452 |
| LRYH | ≤ 0.2 |
